MIC of clinical N. gonorrhoeae isolates (2015-2017) by agar dilution on GC agar with 1% IsoVitaleX (ranges not stated); higher = less susceptible. No active / inactive call per row; the paper counts benzylpenicillin above 1 and ceftriaxone above 0.125 mg/L as resistant (EUCAST). The method is stated for benzylpenicillin and ceftriaxone and assumed for the other drugs. '<=' is inferred from pile-ups at the end values. Isolates are numbered anew.
How the values were obtained:
Test in all cases: Agar dilution on enriched GC agar; resistance determinants by microarray.
[1] = compound: CC1(C)S[C@@H]2[C@H](NC(=O)Cc3ccccc3)C(=O)N2[C@H]1C(=O)O [benzylpenicillin]
[2] = compound: CC[C@H]1OC(=O)[C@H](C)[C@@H](O[C@H]2C[C@@](C)(OC)[C@@H](O)[C@H](C)O2)[C@H](C)[C@@H](O[C@@H]2O[C@H](C)C[C@H](N(C)C)[C@H]2O)[C@](C)(O)C[C@@H](C)CN(C)[C@H](C)[C@@H](O)[C@]1(C)O [azithromycin]
[3] = compound: CN(C)[C@@H]1C(O)=C(C(N)=O)C(=O)[C@@]2(O)C(O)=C3C(=O)c4c(O)cccc4[C@@](C)(O)[C@H]3C[C@@H]12 [tetracycline]
[4] = compound: CN[C@@H]1[C@H](O)[C@H](NC)[C@H]2O[C@@]3(O)C(=O)C[C@@H](C)O[C@H]3O[C@@H]2[C@H]1O [spectinomycin]
[5] = compound: CO/N=C(\C(=O)N[C@@H]1C(=O)N2C(C(=O)O)=C(CSc3nc(=O)c(O)nn3C)CS[C@H]12)c1csc(N)n1 [ceftriaxone]

Neisseria gonorrhoeae isolate 138 (blaTEM plasmid: yes, gyrA: Thr91, Gly95, mtrR promoter: wild type, parC: wild type, penA: ins345Asp, ponA: wild type, porB: wild type, rpsJ: Met57, tetM plasmid: yes)
MIC [1]: ≥ 32 µg/mL
MIC [2]: 0.06 µg/mL
MIC [3]: 64 µg/mL
MIC [4]: 16 µg/mL
MIC [5]: 0.004 µg/mL

Neisseria gonorrhoeae isolate 419 (blaTEM plasmid: no, gyrA: Phe91, Gly95, mtrR promoter: -35delA, parC: Arg87, Glu91, penA: ins345Asp, ponA: Pro421, porB: Lys 120, Gly121, rpsJ: Met57, tetM plasmid: no)
MIC [1]: 0.5 µg/mL
MIC [2]: 0.5 µg/mL
MIC [3]: 4 µg/mL
MIC [4]: 16 µg/mL
MIC [5]: 0.015 µg/mL

Neisseria gonorrhoeae isolate 410 (blaTEM plasmid: no, gyrA: Thr91, Gly95, mtrR promoter: wild type, parC: wild type, penA: wild type, ponA: wild type, porB: wild type, rpsJ: wild type, tetM plasmid: no)
MIC [1]: 0.03 µg/mL
MIC [2]: 0.06 µg/mL
MIC [3]: 1 µg/mL
MIC [4]: 32 µg/mL
MIC [5]: ≤ 0.002 µg/mL

Neisseria gonorrhoeae isolate 297 (blaTEM plasmid: no, gyrA: Thr91, Gly95, mtrR promoter: wild type, parC: wild type, penA: ins345Asp, ponA: wild type, porB: wild type, rpsJ: wild type, tetM plasmid: no)
MIC [1]: 0.06 µg/mL
MIC [2]: 0.06 µg/mL
MIC [3]: 0.5 µg/mL
MIC [4]: 16 µg/mL
MIC [5]: ≤ 0.002 µg/mL

Neisseria gonorrhoeae isolate 404 (blaTEM plasmid: no, gyrA: Phe91, Asn 95, mtrR promoter: wild type, parC: Arg 87, Glu91, penA: ins345Asp, ponA: Pro421, porB: wild type, rpsJ: Met57, tetM plasmid: no)
MIC [1]: 0.25 µg/mL
MIC [2]: 0.06 µg/mL
MIC [3]: 1 µg/mL
MIC [4]: 32 µg/mL
MIC [5]: 0.004 µg/mL

Neisseria gonorrhoeae isolate 288 (blaTEM plasmid: no, gyrA: Phe91, Gly95, mtrR promoter: -35delA, parC: Arg87, Gly91, penA: ins345Asp, ponA: Pro421, porB: Asp120, Ala121, rpsJ: Met57, tetM plasmid: no)
MIC [1]: 0.5 µg/mL
MIC [2]: 0.5 µg/mL
MIC [3]: 0.5 µg/mL
MIC [4]: 16 µg/mL
MIC [5]: 0.015 µg/mL

Neisseria gonorrhoeae isolate 513 (blaTEM plasmid: no, gyrA: Thr91, Gly95, mtrR promoter: wild type, parC: wild type, penA: wild type, ponA: Pro421, porB: wild type, rpsJ: wild type, tetM plasmid: no)
MIC [1]: 0.06 µg/mL
MIC [2]: 0.12 µg/mL
MIC [3]: 0.5 µg/mL
MIC [4]: 16 µg/mL
MIC [5]: ≤ 0.002 µg/mL

Neisseria gonorrhoeae isolate 393 (blaTEM plasmid: no, gyrA: Phe91, Asn95, mtrR promoter: -35delA, parC: Arg87, Glu91, penA: ins345Asp, ponA: Pro421, porB: wild type, rpsJ: Met57, tetM plasmid: no)
MIC [1]: 1 µg/mL
MIC [2]: 1 µg/mL
MIC [3]: 1 µg/mL
MIC [4]: 32 µg/mL
MIC [5]: 0.008 µg/mL

Neisseria gonorrhoeae isolate 511 (blaTEM plasmid: yes, gyrA: Phe91, Asp95, mtrR promoter: wild type, parC: wild type, penA: ins345Asp, ponA: wild type, porB: wild type, rpsJ: Met57, tetM plasmid: yes)
MIC [1]: ≥ 32 µg/mL
MIC [2]: 0.06 µg/mL
MIC [3]: 16 µg/mL
MIC [4]: 8 µg/mL
MIC [5]: ≤ 0.002 µg/mL

Neisseria gonorrhoeae isolate 402 (blaTEM plasmid: no, gyrA: Phe91, Asn95, mtrR promoter: -35delA, parC: Ser87, Gly91, penA: ins345Asp, ponA: Pro421, porB: Lys 120, Asn 121, rpsJ: Met57, tetM plasmid: no)
MIC [1]: 0.12 µg/mL
MIC [2]: 0.25 µg/mL
MIC [3]: 0.5 µg/mL
MIC [4]: 32 µg/mL
MIC [5]: 0.008 µg/mL

Neisseria gonorrhoeae isolate 257 (blaTEM plasmid: no, gyrA: wild type, mtrR promoter: wild type, parC: wild type, penA: ins345Asp, ponA: wild type, porB: Lys120, Asn121, rpsJ: Met57, tetM plasmid: no)
MIC [1]: 0.5 µg/mL
MIC [2]: 0.25 µg/mL
MIC [3]: 4 µg/mL
MIC [4]: 16 µg/mL
MIC [5]: 0.004 µg/mL

Neisseria gonorrhoeae isolate 285 (blaTEM plasmid: no, gyrA: wild type, mtrR promoter: wild type, parC: wild type, penA: wild type, ponA: wild type, porB: wild type, rpsJ: wild type, tetM plasmid: no)
MIC [1]: ≤ 0.015 µg/mL
MIC [2]: 0.12 µg/mL
MIC [3]: 0.12 µg/mL
MIC [4]: 32 µg/mL
MIC [5]: ≤ 0.002 µg/mL

Neisseria gonorrhoeae isolate 468 (blaTEM plasmid: no, gyrA: Phe91, Asn95, mtrR promoter: -35delA, parC: Ser87, Gly91, penA: ins345Asp, ponA: wild type, porB: Asn120, Asp 121, rpsJ: Met57, tetM plasmid: no)
MIC [1]: 1 µg/mL
MIC [2]: 0.25 µg/mL
MIC [3]: 2 µg/mL
MIC [4]: 32 µg/mL
MIC [5]: 0.032 µg/mL

Neisseria gonorrhoeae isolate 24 (blaTEM plasmid: no, gyrA: wild type, mtrR promoter: wild type, parC: wild type, penA: wild type, ponA: wild type, porB: wild type, rpsJ: wild type, tetM plasmid: no)
MIC [1]: 0.03 µg/mL
MIC [2]: 0.12 µg/mL
MIC [3]: 0.25 µg/mL
MIC [4]: 32 µg/mL
MIC [5]: ≤ 0.002 µg/mL

Neisseria gonorrhoeae isolate 106 (blaTEM plasmid: no, gyrA: Phe91, Asn95, mtrR promoter: -35delA, parC: Ile87, Glu91, penA: ins345Asp, ponA: Pro421, porB: Lys 120, Gly121, rpsJ: Met57, tetM plasmid: no)
MIC [1]: 0.5 µg/mL
MIC [2]: 0.25 µg/mL
MIC [3]: 2 µg/mL
MIC [4]: 16 µg/mL
MIC [5]: 0.015 µg/mL

Neisseria gonorrhoeae isolate 123 (blaTEM plasmid: no, gyrA: wild type, mtrR promoter: wild type, parC: wild type, penA: ins345Asp, ponA: wild type, porB: wild type, rpsJ: wild type, tetM plasmid: no)
MIC [1]: ≤ 0.015 µg/mL
MIC [2]: 0.015 µg/mL
MIC [3]: 0.06 µg/mL
MIC [4]: 32 µg/mL
MIC [5]: 0.004 µg/mL

Neisseria gonorrhoeae isolate 114 (blaTEM plasmid: no, gyrA: Thr91, Gly95, mtrR promoter: wild type, parC: wild type, penA: ins345Asp, ponA: wild type, porB: wild type, rpsJ: wild type, tetM plasmid: no)
MIC [1]: 0.12 µg/mL
MIC [2]: 0.03 µg/mL
MIC [3]: 0.25 µg/mL
MIC [4]: 16 µg/mL
MIC [5]: ≤ 0.002 µg/mL

Neisseria gonorrhoeae isolate 72 (blaTEM plasmid: no, gyrA: wild type, mtrR promoter: wild type, parC: wild type, penA: wild type, ponA: wild type, porB: wild type, rpsJ: wild type, tetM plasmid: no)
MIC [1]: ≤ 0.015 µg/mL
MIC [2]: 0.06 µg/mL
MIC [3]: 0.06 µg/mL
MIC [4]: 16 µg/mL
MIC [5]: ≤ 0.002 µg/mL

Neisseria gonorrhoeae isolate 395 (blaTEM plasmid: no, gyrA: Thr 91, Asp95, mtrR promoter: wild type, parC: wild type, penA: wild type, ponA: wild type, porB: wild type, rpsJ: wild type, tetM plasmid: no)
MIC [1]: 0.12 µg/mL
MIC [2]: 0.12 µg/mL
MIC [3]: 0.5 µg/mL
MIC [4]: 16 µg/mL
MIC [5]: 0.004 µg/mL

Neisseria gonorrhoeae isolate 22 (blaTEM plasmid: no, gyrA: wild type, mtrR promoter: wild type, parC: wild type, penA: wild type, ponA: wild type, porB: wild type, rpsJ: wild type, tetM plasmid: no)
MIC [1]: 0.03 µg/mL
MIC [2]: 0.06 µg/mL
MIC [3]: 0.12 µg/mL
MIC [4]: 16 µg/mL
MIC [5]: ≤ 0.002 µg/mL

Neisseria gonorrhoeae isolate 269 (blaTEM plasmid: no, gyrA: Thr91, Gly95, mtrR promoter: wild type, parC: wild type, penA: wild type, ponA: wild type, porB: wild type, rpsJ: wild type, tetM plasmid: no)
MIC [1]: 0.12 µg/mL
MIC [2]: 0.03 µg/mL
MIC [3]: 0.12 µg/mL
MIC [4]: 16 µg/mL
MIC [5]: ≤ 0.002 µg/mL

Neisseria gonorrhoeae isolate 492 (blaTEM plasmid: no, gyrA: wild type, mtrR promoter: -35delA, parC: Arg87, Glu91, penA: ins345Asp, ponA: Pro421, porB: Lys 120, Asn 121, rpsJ: wild type, tetM plasmid: no)
MIC [1]: 1 µg/mL
MIC [2]: 0.06 µg/mL
MIC [3]: 2 µg/mL
MIC [4]: 32 µg/mL
MIC [5]: 0.015 µg/mL

Neisseria gonorrhoeae isolate 241 (blaTEM plasmid: no, gyrA: Phe91, Asn95, mtrR promoter: -35delA, parC: Arg87, Glu91, penA: ins345Asp, ponA: Pro421, porB: Thr 120, Asn 121, rpsJ: Met57, tetM plasmid: no)
MIC [1]: 0.5 µg/mL
MIC [2]: 0.25 µg/mL
MIC [3]: 0.5 µg/mL
MIC [4]: 8 µg/mL
MIC [5]: 0.008 µg/mL

Neisseria gonorrhoeae isolate 136 (blaTEM plasmid: no, gyrA: Phe91, Asn95, mtrR promoter: -35delA, parC: Arg87, Glu91, penA: ins345Asp, ponA: Pro421, porB: wild type, rpsJ: Met57, tetM plasmid: no)
MIC [1]: 0.5 µg/mL
MIC [2]: 0.5 µg/mL
MIC [3]: 2 µg/mL
MIC [4]: 16 µg/mL
MIC [5]: 0.015 µg/mL

Neisseria gonorrhoeae isolate 35 (blaTEM plasmid: no, gyrA: wild type, mtrR promoter: wild type, parC: wild type, penA: ins345Asp, ponA: wild type, porB: wild type, rpsJ: wild type, tetM plasmid: no)
MIC [1]: ≤ 0.015 µg/mL
MIC [2]: 0.03 µg/mL
MIC [3]: 0.25 µg/mL
MIC [4]: 8 µg/mL
MIC [5]: ≤ 0.002 µg/mL

— the supplement of paper PMC6657886
